Reference: PubChem BioAssay AID2147 (National Center for Advancing Translational Sciences (NCATS), 2009)
Values joined by “and” are separate entries in the source; they are usually repeats but may differ in a detail not shown here. Equal entries are not always repeated. Hit rate of the full screen: of about 230,000 compounds, about 3,600 (1.6%) were called active. Inconclusive results, whose numbers are uncertain, are shown with a selection of clear calls. Calls follow the shape of the dose curve; as a rule, active = well fitted inhibition curve with a large enough effect (not every such curve was filed as active); inconclusive = small, poorly fitted or top-dose-only effect, or another doubt; inactive = no such curve, though single readings can be large or run the other way. Where the call is inconclusive, the potency comes from a doubtful curve fit.

Molecular target: Lysine-specific demethylase 4E (Homo sapiens) (UniProt B2RXH2)
Chain of UniProt B2RXH2 (B2RXH2 whole entry, looked up, the tested form may be a part): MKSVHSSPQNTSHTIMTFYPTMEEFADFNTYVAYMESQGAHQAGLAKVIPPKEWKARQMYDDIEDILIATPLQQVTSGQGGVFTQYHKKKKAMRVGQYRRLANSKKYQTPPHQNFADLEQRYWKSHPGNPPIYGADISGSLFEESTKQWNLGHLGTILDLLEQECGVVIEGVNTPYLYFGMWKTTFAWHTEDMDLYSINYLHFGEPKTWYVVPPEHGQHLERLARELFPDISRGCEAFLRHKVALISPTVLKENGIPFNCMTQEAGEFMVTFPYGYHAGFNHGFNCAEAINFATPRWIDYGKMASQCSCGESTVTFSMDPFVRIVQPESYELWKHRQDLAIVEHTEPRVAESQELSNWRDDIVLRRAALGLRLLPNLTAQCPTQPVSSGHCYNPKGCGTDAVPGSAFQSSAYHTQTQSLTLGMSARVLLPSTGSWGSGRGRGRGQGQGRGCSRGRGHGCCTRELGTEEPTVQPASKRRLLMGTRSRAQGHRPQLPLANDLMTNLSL
Experiment: qHTS Assay for Inhibitors of Human Jumonji Domain Containing 2E (JMJD2E)
Conditions: JMJD2E catalytic domain, FDH-coupled NADH fluorescence (FDH is formaldehyde dehydrogenase); series mostly up to 57.1 µM
Also: nearly all actives have a fitted effect of over 50% in size.
Potency is read from the fitted curve at half-maximal effect; tags tell the direction and shape of the fitted curve.

Structure (SMILES) | Potency
Oc1ccc(/C=N/NP(=S)(c2ccccc2)c2ccccc2)c(O)c1O | active: 14.1 µM
FC(F)(F)c1ccccc1CN1CCN(Cc2ccccc2)CC1 | inconclusive: 28.2 µM [inhibitor, single point]
COc1cc2c(cc1OC)C(C(=O)NCCC(C)C)C1CCCCN1C2=O (stereo unspecified) | inconclusive: 28.2 µM [inhibitor, partial curve]
O=c1cc(CO)occ1O | active: 25.1 µM
CCc1c(C)nc(N)nc1N1N=C1SC(C(C)=O)C(C)=O | inconclusive: 22.4 µM [inhibitor, single point]
CC(C(=O)c1c[nH]c2ccccc12)N1CCN(C(=O)c2ccco2)CC1 (stereo unspecified) | inactive
O=c1[nH]c(=S)[nH]c(O)c1N=Nc1ccc2c(c1)OCCO2 | inactive
NC(C(=O)O)C1CC(Cl)=NO1 (stereo unspecified) | inactive
COc1ccc2[nH]c3c(c2c1)CCN=C3C | inconclusive: 12.6 µM [inhibitor, partial curve]
O=c1c2ccccc2nc(-c2ccc([N+](=O)[O-])cc2)n1-c1ccccc1 | inactive
CC(C)[C@@]1(NC(=O)[C@@H]2C[C@@H]3c4cccc5[nH]cc(c45)C[C@H]3N(C)C2)O[C@@]2(O)[C@@H]3CCCN3C(=O)[C@H](Cc3ccccc3)N2C1=O | inactive and inconclusive: 39.8 µM [inhibitor, single point]
O=C(c1sc2ccccc2c1Cl)N1CCC2(CC1)OCCO2 | inactive
O=[N+]([O-])c1ccc(-c2ccc(C=Nc3cccc4ccccc34)o2)cc1 | inconclusive: 28.2 µM [inhibitor, partial curve]
CC(C)(C)NS(=O)(=O)c1ccc(OCC(=O)N2CCN(Cc3ccccc3)CC2)cc1 | inactive
CC1Cc2cc3c(cc2C(c2ccc(N)cc2)=NN1)OCO3 (stereo unspecified) | inconclusive: 25.1 µM [inhibitor, single point]
CCCCNC(=O)c1c(N)n(CCCOC)c2nc3ccccc3nc12 | inconclusive: 31.6 µM [inhibitor, partial curve]
CC(C)OC(=O)Nc1cccc(Cl)c1 | inactive
CC(C)c1ccc(N=Nc2c(O)[nH]c(=O)[nH]c2=O)cc1 | inactive
c1ccc2nc(N3CCNCC3)ccc2c1 | inconclusive: 15.8 µM [inhibitor, single point] and inconclusive: 35.5 µM [inhibitor, partial curve] and inconclusive: 25.1 µM [inhibitor, partial curve]
C[N+](C)(C)CCCCCCCCCC[N+](C)(C)C | inconclusive: 35.5 µM [inhibitor, single point]
CC1(O)C[C@]2(C)N(O)C3CCCC[C@@H]3N2O1 (stereo partly specified) | inconclusive: 39.8 µM [inhibitor, single point]
Cc1cc(C)nc(N/N=C/C2=C(O)CC(c3ccccc3)CC2=O)n1 (stereo unspecified) | inconclusive: 31.6 µM [inhibitor, single point]
Nc1nc(/C(=C/CC(=O)O)C(=O)NC2C(=O)N3C(C(=O)O)=CCSC23)cs1 (stereo unspecified) | inconclusive: 39.8 µM [inhibitor, single point]

Structure (SMILES) | Potency
Cc1ccc2c(c1)=C/C(=C\c1c(O)[nH]c(=S)[nH]c1=O)C(=O)N=2 | inconclusive: 28.2 µM [inhibitor, partial curve]
C[N+]1(C)C2CCC1CC(OC(=O)c1ccccc1)C2 (stereo unspecified) | inactive
Cc1cc(OCc2nn[nH]n2)c2c3c(c(=O)oc2c1)CCC3 | inconclusive: 31.6 µM [inhibitor, partial curve]
O=c1[nH]c(O)c(C=Nc2ccccc2Oc2ccccc2)c(=O)[nH]1 | inconclusive: 39.8 µM [inhibitor, single point]
O=C1NC(=O)N(Cc2ccccc2)C(=O)/C1=C/c1cnn(-c2ccccc2)c1 | inconclusive: 35.5 µM [inhibitor, single point]
Nc1ccc2cc(Br)ccc2c1 | inconclusive: 39.8 µM [inhibitor, single point]
CSc1ncc(/C=C2/C(=O)NC(=O)N(c3ccc(C)cc3)C2=O)cn1 | inconclusive: 35.5 µM [inhibitor, single point]
C[C@H](O)[C@H]1CC[C@H]2[C@@H]3CCC4=CC(=O)CC[C@]4(C)[C@H]3CC[C@]12C | inconclusive: 39.8 µM [inhibitor, single point]
Oc1cc(O)c2c(c1)OC(c1cc(O)c(O)c(O)c1)C(O)C2 (stereo unspecified) | active: 1.41 µM
CCN(CC)S(=O)(=O)c1cc(NC(=O)C(C)N2CC=C(c3ccccc3)CC2)ccc1C (stereo unspecified) | inconclusive: 35.5 µM [inhibitor, single point]
CNS(=O)(=O)c1ccc(N=Cc2c(O)n(-c3ccccc3)c(=O)[nH]c2=O)cc1 | inconclusive: 39.8 µM [inhibitor, single point]
CN1C(=O)C(Cc2cccs2)C(=O)N(C)C1=O | inactive
O=C(N=Nc1c(O)[nH]c(=O)[nH]c1=O)C1COc2cc3ccccc3cc2O1 (stereo unspecified) | inconclusive: 35.5 µM [inhibitor, single point]
O=C(N/N=C/c1c(O)n(Cc2ccc(F)cc2)c(=O)[nH]c1=O)c1ccccc1O | active: 25.1 µM
S=c1[nH]c2cc(Br)cnc2[nH]1 | inconclusive: 31.6 µM [inhibitor, single point]
CCCNc1nc(OC)nc(N2CC3CC(C2)c2cccc(=O)n2C3)n1 (stereo unspecified) | inactive
CN1CCN(c2ccc(/C=C3\C(=O)NC(=S)N(c4cccc(Br)c4)C3=O)o2)CC1 | inactive
CC1=C(C(=O)O)N2C(=O)[C@@H](NC(=O)CCCC(=O)O)[C@H]2SC1 | inactive
Cc1cc(OCC(=O)OC(C)(C)C)c2c3c(c(=O)oc2c1)CCC3 | active: 4.47 µM
CSc1nc(N2CCN(C)CC2)c2ccccc2n1 | inconclusive: 31.6 µM [inhibitor, single point]
Cc1c(C(=O)c2cccc3ccccc23)c2cccc3c2n1[C@H](CN1CCOCC1)CO3 | inactive
CCCc1[nH]nc2c1C1(C(=O)N(CC(N)=O)c3ccccc31)C(C(=O)OC)=C(N)O2 (stereo unspecified) | inactive
N#CC1(c2ccccc2)CCN(C2CC(=O)N(c3cccc(F)c3)C2=O)CC1 (stereo unspecified) | inactive
